Experimental data taken from the antibiotic and cytotoxicity screens of Wong et al. (2023).
The list shows a part of the results.

What was measured:
[1] = test system: HSkMC (human skeletal muscle cells); experiment: cytotoxicity call (relative viability < 0.9); conditions: 10 µM
[2] = test system: HepG2; experiment: cytotoxicity call (relative viability < 0.9); conditions: 10 µM
[3] = test system: S. aureus RN4220; experiment: growth inhibition call (relative growth <= 0.2); conditions: 50 µM

SMILES | cytotoxicity call [1] | cytotoxicity call [2] | growth inhibition call [3]
CCOc1ccc([C@@H](C)N)cc1OCC | inactive | inactive | inactive
CO[C@@H]1CN(C)C(=O)c2ccc(NC(=O)c3ccccc3)cc2OC[C@H](C)N(C(=O)CN(C)C)C[C@H]1C | inactive | inactive | inactive
C[C@@H]1CN([C@H](C)CO)C(=O)Cc2cc(NC(=O)CCC(F)(F)F)ccc2O[C@@H]1CN(C)Cc1ccc(-c2ccccc2)cc1 | inactive | active | inactive
COc1ccc(S(=O)(=O)Nc2ccc3c(c2)CC(=O)N([C@H](C)CO)C[C@@H](C)[C@H](CN(C)S(=O)(=O)c2ccc(OC)cc2)O3)cc1 | inactive | inactive | inactive
C[C@H]1CCCCO[C@H](CN(C)C(=O)Nc2ccc(C(F)(F)F)cc2)[C@@H](C)CN([C@@H](C)CO)C(=O)c2cc(NS(=O)(=O)c3ccc(F)cc3)ccc2O1 | active | active | inactive
CC(C)C(N)C(=O)O (stereo not given) | inactive | inactive | inactive
C[C@@H]1CN([C@H](C)CO)C(=O)Cc2cc(NC(=O)CCN3CCOCC3)ccc2O[C@H]1CN(C)C(=O)NC1CCCCC1 | inactive | inactive | inactive
Cc1noc(C)c1NC(=O)N(C)C[C@@H]1OCCCC[C@H](C)Oc2ccc(NC(=O)Cc3ccccc3)cc2C(=O)N([C@@H](C)CO)C[C@H]1C | inactive | inactive | inactive
C[C@@H]1CN([C@H](C)CO)S(=O)(=O)c2ccc(C#CC3CC3)cc2O[C@H]1CN(C)C(=O)C1CCCCC1 | inactive | inactive | inactive
COc1ccc(CN(C)C[C@@H]2Oc3ccc(NC(=O)Nc4cccc5ccccc45)cc3C(=O)N([C@H](C)CO)C[C@@H]2C)cc1 | inactive | inactive | inactive
